# Laboratory results from PubChem BioAssay AID1347120 (National Center for Advancing Translational Sciences (NCATS), 2019).
# About 930 (0.24%) of roughly 390,000 compounds were called active. Inconclusive means that the source gave no clear call. Such entries were picked first, then a sample of the others. Calls follow the shape of the dose curve; as a rule, active = well fitted activation curve with a large enough effect; inconclusive = small, poorly fitted or top-dose-only effect; inactive = no such curve, though single readings can be large or run the other way. A potency beside an inconclusive call is a rough fit, not a confirmed value.
# Assay: qHTS for Suppressors of FUS Proteinopathy: Primary screen using FUS-linked yeast assay; also: nearly all actives have a fitted effect of over 55% in size;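 as to growth rescue (activation): plate controls were DMSO vehicle for no effect and reference control for full effect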
# Settings: S. cerevisiae FUS-expressing, OD600, 24 h; Potency: growth rescue; growth rescue (activation): at 76.6 µM (top of the series)
# Summary of the method: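 Absorbance at 600 nm, taken 24hr after compound addition, measured rescue of FUS-yeast growth at 30C. Induction used 2% galactose with seeding at OD 0.005. Controls: CP55940 from 92uM final, DMSO only.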
# Potency is read from the fitted curve at half-maximal effect; tags tell the direction and shape of the fitted curve.
SMILES,growth rescue (activation),Potency
O=C(Nc1cc(Cl)ccc1N1CCCCC1)c1cccs1,inactive: 6.95%,
Cc1ccc(S(=O)(=O)Nc2cccc(-c3cn4ccsc4n3)c2)cc1,,"inconclusive: 50.1 µM [activator, single point]"
CCN1C(=O)[C@H]2[C@@H](c3ccc(-c4cccc(Cl)c4)c(OC)c3)N[C@@](Cc3ccccc3)(C(=O)OC)[C@H]2C1=O,,"inconclusive: 20 µM [activator, partial curve, poor fit]"
COc1ccc(N(CC(=O)N2CCN(c3cccc(OC)c3)CC2)S(=O)(=O)c2c(C)noc2C)cc1,,"inconclusive: 14.1 µM [activator, single point]"
O=C(Nc1ccc(N2CCOCC2)c(S(=O)(=O)Nc2ccccc2Cl)c1)c1ccccc1,inactive: 21.2%,
CCS(=O)(=O)Nc1ccc(C2=NN(C(=O)c3ccco3)C(c3ccc(C)cc3)C2)cc1 (centres undefined),,"inconclusive: 56.2 µM [activator, partial curve, poor fit]"
Cc1cccc(CN2C(=O)/C(=C\c3ccc(C(=O)NCCN4CCOCC4)cc3)Sc3ccccc32)c1,inactive: 33.5%,
COc1ccc(CN2CCC[C@]3(N[C@H](c4ccccc4)[C@@H]4C(=O)N(Cc5ccccc5)C(=O)[C@@H]43)C2=O)cc1,,"inconclusive: 25.1 µM [activator, partial curve]"
O=C(O)CNC(=S)N(Cc1ccccc1)Cc1cccs1,inactive: -4.54%,
Cc1ccc(-c2cc(=O)[nH][nH]2)c(C)c1,inactive: 19%,
COc1ccc(C(C(=O)N(C)C2CCCC2)N(Cc2ccc(F)cc2)C(=O)c2cc(C)[nH]n2)cc1OC (centres undefined),inactive: 26.3%,
CC1(c2ccccc2)NC(=S)N2C1NC(=S)N2c1ccccc1 (centres undefined),,"inconclusive: 28.2 µM [activator, single point]"
COc1ccc(C2(c3ccc(OC)cc3)NC(=O)N(CC(=O)Nc3ccc(N4CCOCC4)cc3)C2=O)cc1,,"inconclusive: 35.5 µM [activator, single point]"
COc1ccccc1[C@@H]1C(c2cccc(Cl)c2)=NN(c2ccccc2)[C@H]1C(=O)N1CCOC1=O,,"inconclusive: 28.2 µM [activator, single point]"
COCCNc1nc(Oc2cccc(F)c2)c2sccc2n1,inactive: -2.53%,
COc1ccc(NS(=O)(=O)c2ccc3c(c2)NC(=O)CCS3)cc1Cl,,"inconclusive: 10 µM [activator, partial curve]"
COC(=O)C1CN(CC(C)C)CCS(=O)(=O)N1Cc1ccc(C(F)(F)F)cc1 (centres undefined),,"inconclusive: 3.98 µM [activator, partial curve, poor fit]"
Cc1ccc(NC(=O)COC(=O)c2ccc3c(c2)NC(=O)C2CCCN32)cc1 (centres undefined),,"inconclusive: 3.55 µM [activator, full curve, poor fit]"
O=C(CSc1ccc(-c2ccco2)nn1)Nc1ccccc1F,inactive: 32.5%,
COc1cccc(S(=O)(=O)Nc2ccc3c(c2)[C@@H]2C[C@@H](CC(=O)NCc4ccc(Cl)cc4)O[C@@H](CO)[C@@H]2O3)c1,,"inconclusive: 50.1 µM [activator, single point]"
O/N=C(\c1ccc(Cl)cc1)c1ncc(C(F)(F)F)cc1Cl,inactive: 0.778%,
C[C@@H]1C[C@H]2[C@@H](Cc3ccccc3)C(=O)N3[C@H](c4ccccc4)[C@H](C)C[C@H]3[C@@H](Cc3ccccc3)C(=O)N2[C@@H]1c1ccccc1,,"inconclusive: 25.1 µM [activator, partial curve, poor fit]"

SMILES,growth rescue (activation),Potency
CCc1ccccc1NC(=O)C(=O)NCCc1sc(-c2cccc(F)c2)nc1C,inactive: -18.8%,
COc1cc(-c2noc(C)c2-c2ccc3[nH]ccc3c2)cc(OC)c1OC,,"inconclusive: 39.8 µM [activator, single point]"
Cc1ccccc1NC(=S)NC(=O)/C=C/c1ccco1,,active: 8.91 µM
CC(C)[C@H](NC(=O)c1cccc(S(=O)(=O)N2CCOCC2)c1)C(=O)OCC(=O)Nc1cccc(Br)c1,,"inconclusive: 44.7 µM [activator, single point]"
COc1ccc(-n2nnc(-c3nc(-c4cccs4)no3)c2N)cc1,inactive: -10.2%,
O=C(CSCc1cnn(-c2ccccc2)c1-n1cccc1)NCCN1CCOCC1,inconclusive: 48.5% [activator],
COc1ccc(NCc2nnc(SCC(=O)Nc3cc(C)cc(C)c3)o2)cc1,,"inconclusive: 17.8 µM [activator, partial curve, poor fit]"
CCc1cccc(NC(=O)c2ccc(CNS(=O)(=O)c3ccc4c(c3)C(C)(C)C(=O)N4C)cc2)c1,,"inconclusive: 35.5 µM [activator, single point]"
Nc1ncc2c(n1)CC(c1ccco1)CC2=O (centres undefined),inactive: 32.1%,
CC1CCN(C(=O)c2ccc3c(Cl)c4c(nc3c2)CCCC4)CC1,inactive: 6.33%,
C[C@@H]1CCCCO[C@H](CN(C)S(=O)(=O)c2cccs2)[C@@H](C)CN([C@H](C)CO)C(=O)c2cc(NC(=O)Nc3ccc4c(c3)OCO4)ccc2O1,,"inconclusive: 28.2 µM [activator, single point]"
O=C(Nc1ccc(F)c(Cl)c1)N1CCC(CN2CCc3ccccc3C2)CC1,inactive: 1.4%,
COc1ccc(CCNC(=O)Cn2cc(C(=O)c3ccc(F)cc3)c(=O)c3ccc(C)nc32)cc1OC,inactive: 43.5%,
O=c1c(-c2c(O)cc(O)c3c(=O)cc(-c4ccc(O)cc4)oc23)c(-c2ccc(O)cc2)oc2cc(O)cc(O)c12,,"inconclusive: 35.5 µM [activator, single point]"
Cc1ccc(S(=O)(=O)N2CCCC2C(=O)N2CCc3ccccc3C2)cc1 (centres undefined),inactive: 2.2%,
O=C1C=C(c2ccc(CO)cc2)C[C@@H](c2ccc(F)cc2)C1,inactive: 2.5%,
CCOc1ccc(OCC)c(Nc2nc3ccc(Cl)cc3n3cnnc23)c1,inactive: -10.4%,
CCN(CCn1cccn1)Cc1nc(-c2ccc(OC)cc2)no1,inactive: 21.4%,
COc1ccc(N(CC(=O)Nc2nc3ccc(C)cc3s2)S(=O)(=O)c2c(C)nn(C)c2C)cc1,,"inconclusive: 39.8 µM [activator, single point]"
Cc1cc(O)ccc1Nc1nc(-c2cccnc2)cs1,inconclusive: -74.3% [activator],
COc1ccc(CN(C)C(=O)C(CCSC)NS(=O)(=O)c2ccc3c(c2)OCCO3)c(OC)c1OC (centres undefined),,"inconclusive: 2.82 µM [activator, full curve]"
O=C(c1ccc(Cl)cc1)c1oc2ccccc2c1CS(=O)(=O)c1ccccc1,,"inconclusive: 25.1 µM [activator, partial curve, poor fit]"

SMILES,growth rescue (activation),Potency
COc1cc(/C=N/NC(=O)C(NC(=O)c2ccccc2)c2n[nH]c(=O)c3ccccc23)ccc1OCC(N)=O (centres undefined),,"inconclusive: 20 µM [activator, partial curve]"
O=C(NCc1cccc(Cl)c1)C1CCCN(c2ncnc3onc(-c4ccc(F)cc4)c23)C1 (centres undefined),,"inconclusive: 31.6 µM [activator, partial curve, poor fit]"
CCn1c(=O)cc(SCC(=O)N2CCN(c3ccccc3F)CC2)c2ccccc21,,"inconclusive: 35.5 µM [activator, single point]"
COc1ccccc1NC(=O)c1cc(S(=O)(=O)NCCC2=CCCCC2)ccc1F,,"inconclusive: 50.1 µM [activator, single point]"
O=C(CCCc1nc2ccccc2s1)N1CCN(c2ccccc2F)CC1,,"inconclusive: 35.5 µM [activator, single point]"
O=C1N[C@H](Cc2ccccc2)COC(=O)[C@H](Cc2ccc(F)cc2)C/C=C\C[C@@H]1CC(=O)N(CCO)Cc1ccccc1,,"inconclusive: 28.2 µM [activator, single point]"
CCOc1cc2[nH]c(=S)n(CCCC(=O)NCc3ccco3)c(=O)c2cc1OCC,,"inconclusive: 35.5 µM [activator, partial curve, poor fit]"
CS(=O)(=O)Nc1cccc(NC(=O)c2ccc(-c3ccc(F)c(F)c3)c3ccoc23)c1,,"inconclusive: 28.2 µM [activator, single point]"
O=C(CCCC(=O)OCC(Cl)=C(Cl)Cl)Nc1cccc(F)c1,inactive: 19.6%,
Cc1nc2ccccc2c(C)c1C(=O)c1ccccc1,inactive: -14%,
CN(C)C(=O)COC(=O)c1cccc(S(=O)(=O)Nc2ccc(OCc3ccccc3)cc2)c1,,"inconclusive: 20 µM [activator, partial curve]"
CC(C(=O)N1CCCc2ccccc21)N1CCN(c2ccccn2)CC1 (centres undefined),inactive: -26.4%,
Cc1ccc(COC[C@H](CC(C)C)N2CCN(C(=O)c3cccc(C(F)(F)F)c3)CCC2=O)cc1,,active: 4.47 µM
O=c1c(-c2cccnc2)nc2ccccc2n1C(CCc1ccccc1)c1nc2ccccc2[nH]1 (centres undefined),,"inconclusive: 28.2 µM [activator, single point]"
Cc1ccccc1Nc1nnc(SCc2cc(=O)n3ccsc3n2)s1,,"inconclusive: 28.2 µM [activator, single point]"
CCc1ccc(C(C(=O)NCc2ccc(F)cc2)N(C(=O)c2csnn2)C2CC2)cc1 (centres undefined),,"inconclusive: 31.6 µM [activator, single point]"
COc1cccc(N2CCN(c3ncnc4onc(-c5ccc(Cl)cc5)c34)CC2)c1,inactive: 42.1%,
CCN(Cc1ccccc1)C(=O)C(CC(C)C)NS(=O)(=O)c1ccc2c(c1)CCN2C(C)=O (centres undefined),inactive: 31%,
Cc1ccc(-n2c(=O)c3ccccc3n(CC(=O)Nc3cccc(C(F)(F)F)c3)c2=O)cc1,,"inconclusive: 22.4 µM [activator, partial curve]"
COC(=O)[C@@]12C[C@@H](CC(=O)NCc3cccc4ccccc34)C(=O)N(Cc3ccco3)C1=CCC(C)(C)C2,,"inconclusive: 15.8 µM [activator, partial curve]"
